The inconclusive results got no clear call from the source; some entries with a clear call stand among them for comparison. For part of these data: Potencies of inconclusive entries are left out as doubtful fits. Calls of active or inactive are those of the source. Unless noted, calls come from the whole dose curve; as a rule, active = well fitted cell-killing curve with a large enough effect in the repeat runs; inconclusive = weak or mixed curves, or effect the other way; inactive = no such curve, though single readings can be large or run the other way.
biological target: Bile acid receptor (Homo sapiens) (UniProt Q96RI1); assay: qHTS assay to identify small molecule antagonists of the farnesoid-X-receptor (FXR) signaling pathway (AID 743217; active = well fitted inhibition curve with a large enough effect in the signal ratio in the repeat runs, not every such curve was filed as active; inconclusive = weak or mixed curves, or effect the other way; inactive = no such curve, though single readings can be large or run the other way; the % refers to the signal ratio; note: potency is the fitted concentration of half-maximal effect); conditions: HEK293T FXR-UAS-bla, beta-lactamase ratio, CDCA-stimulated, 16 h; activity change, negative = inhibition: at 62.6 µM (top of the series) unless noted
Procedure, shortened: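 FXR-UAS-bla HEK 293T cells pre-incubated 5 h at 37 °C, then exposed to compounds with chenodeoxycholic acid (50 uM final) for 16 h at 37 °C. Beta-lactamase reporter read by LiveBLAzer B/G FRET substrate fluorescence after 2 h at room temperature.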
% is set by controls: 0 for no effect and ±100 for the full control effect; tags give direction and shape of the fitted curve or compound fluorescence and quenching.

UniProt Q96RI1, sequence (Q96RI1 whole entry, looked up): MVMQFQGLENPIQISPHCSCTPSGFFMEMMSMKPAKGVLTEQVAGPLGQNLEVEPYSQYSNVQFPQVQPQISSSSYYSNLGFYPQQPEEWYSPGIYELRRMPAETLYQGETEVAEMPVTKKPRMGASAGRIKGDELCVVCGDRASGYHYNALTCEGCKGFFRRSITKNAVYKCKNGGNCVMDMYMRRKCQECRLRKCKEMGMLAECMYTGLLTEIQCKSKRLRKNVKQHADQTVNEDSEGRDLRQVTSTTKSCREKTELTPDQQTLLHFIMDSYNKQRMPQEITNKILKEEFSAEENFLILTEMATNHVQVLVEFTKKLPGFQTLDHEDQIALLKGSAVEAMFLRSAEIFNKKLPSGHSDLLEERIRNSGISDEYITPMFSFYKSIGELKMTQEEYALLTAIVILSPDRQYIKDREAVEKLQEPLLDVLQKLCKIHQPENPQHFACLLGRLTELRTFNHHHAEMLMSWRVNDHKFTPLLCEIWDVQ

Row | SMILES | Potency | activity change, negative = inhibition
1 | CCCCC(=O)O | inactive | 
2 | CC(C)COC(=O)/C=C/c1ccccc1 | inactive | 
3 | CC(=O)c1cccc([N+](=O)[O-])c1 | inactive | 
4 | Cc1nc2ccc(CN(C)c3ccc(C(=O)N[C@@H](CCC(=O)O)C(=O)O)s3)cc2c(=O)[nH]1 | inconclusive [inhibitor, full curve] | 
5 | CN(C)CCCN |  | inconclusive: 1.49%
6 | CCCCCCCCCCO | inactive | 
7 | Nc1ccc(C(=O)Oc2ccccc2)c(O)c1 | inactive | 
8 | O=C(CCNNC(=O)c1ccncc1)NCc1ccccc1 | inactive | 

test system: not listed separately; assay: qHTS assay to identify small molecule agonists of the farnesoid-X-receptor (FXR) signaling pathway - cell viability counter screen (AID 743218); conditions: FXR-bla HEK293T viability, CellTiter-Glo luminescence, 16 h; viability change, negative = cytotoxic: at 62.6 µM (top of the series) unless noted; note: nearly all actives have a fitted effect of over 45% in size; note: potency is the fitted concentration of half-maximal effect
Procedure, shortened: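 FXR-UAS-bla HEK 293T cells, plated 5 h at 37 C, were exposed to compounds for 16 h at 37 C. CellTiter-Glo was then added to the same wells as the bla readout; luminescence read after 30 min at room temperature.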

Row | SMILES | Potency
9 | CC(C)(C)c1ccc(OCC2CO2)cc1 (configuration not stated) | inactive
10 | O=C1c2cccc3c2[C@H](CCC3)CN1[C@@H]1CN2CCC1CC2 | inactive
11 | CC(=O)[O][Al] | inactive
12 | CCCCCCCCCCCBr | inactive
13 | CN(C)CCCN | inconclusive [rising, partial curve, poor fit]
14 | CCCCCCCCCCO | inconclusive [rising, partial curve, poor fit]
15 | CN1[C@@H]2CC[C@H]1CC(OC(=O)C(CO)c1ccccc1)C2 (some centres not stated) | inconclusive [cytotoxic, partial curve, poor fit]
16 | COc1cc2nc(N3CCN(C(=O)C4CCCO4)CC3)nc(N)c2cc1OC (configuration not stated) | inactive
17 | C[C@H]1C[C@@H]2[C@H]([C@@H](O)C[C@@]3(C)[C@H]2CC[C@]3(O)C(=O)CO)[C@@]2(C)C=CC(=O)C=C12 | inconclusive [rising, partial curve]
18 | CC(N)C(=O)OC(C)(C)Cc1ccc(Cl)cc1 (configuration not stated) | inconclusive [cytotoxic, partial curve, poor fit]

biological target: Bile acid receptor (Homo sapiens) (UniProt Q96RI1); assay: qHTS assay to identify small molecule agonists of the farnesoid-X-receptor (FXR) signaling pathway (AID 743220; active = well fitted activation curve with a large enough effect in the signal ratio in the repeat runs, not every such curve was filed as active; inconclusive = weak or mixed curves, or effect the other way; the % refers to the signal ratio); conditions: HEK293T FXR-UAS-bla, beta-lactamase FRET ratio, 16 h; activation: at 62.6 µM (top of the series)
Procedure, shortened: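 Beta-lactamase reporter under UAS control in GeneBLAzer FXR HEK 293T cells (5000/well) measured with LiveBLAzer FRET substrate after 2 h at room temperature. Compound exposure lasted 16 h at 37C.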

Row | SMILES | Potency
19 | Cc1cccc(NC(=S)N(C)C)c1 | inactive
20 | O=S(=O)(O)CC(O)CCl (configuration not stated) | inactive
21 | Cc1nc2ccc(CN(C)c3ccc(C(=O)N[C@@H](CCC(=O)O)C(=O)O)s3)cc2c(=O)[nH]1 | inactive
22 | CCCCC(=O)O[C@]1(C(=O)CO)CC[C@H]2[C@@H]3CCC4=CC(=O)CC[C@]4(C)[C@H]3[C@@H](O)C[C@@]21C | inactive

test system: not listed separately; assay: qHTS assay to identify small molecule antagonists of the farnesoid-X-receptor (FXR) signaling pathway - cell viability counter screen (AID 743221; active = well fitted cell-killing curve with a large enough effect in the repeat runs, not every such curve was filed as active; inconclusive = weak or mixed curves, or effect the other way; inactive = no such curve, though single readings can be large or run the other way; note: nearly all actives have a fitted effect of over 50% in size; note: potency is the fitted concentration of half-maximal effect); conditions: FXR-bla HEK293T viability, CellTiter-Glo luminescence, 16 h; activity change, negative = cytotoxicity: at 62.6 µM (top of the series) unless noted
Procedure, shortened: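 GeneBLAzer FXR-UAS-bla HEK 293T cells, compound plus chenodeoxycholic acid (50 uM final), 16 h at 37 C. CellTiter-Glo added to the same wells after the beta-lactamase read; luminescence read after 30 min at room temperature as viability.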

Row | SMILES | Potency
23 | O=c1[nH]c(=O)c2cn[nH]c2[nH]1 | inconclusive [rising, partial curve, poor fit]
24 | CC(=O)c1cccc([N+](=O)[O-])c1 | inactive
25 | CC(=O)[C@H]1CC[C@H]2[C@@H]3C[C@H](C)C4=CC(=O)CC[C@]4(C)[C@H]3[C@@H](O)C[C@]12C | inactive
26 | Cc1ccc(S(=O)(=O)N=C=O)cc1 | inconclusive [falling, full curve, poor fit]
27 | Cc1nc2ccc(CN(C)c3ccc(C(=O)N[C@@H](CCC(=O)O)C(=O)O)s3)cc2c(=O)[nH]1 | inactive
